# According to PubChem BioAssay AID2147 (National Center for Advancing Translational Sciences (NCATS), 2009):
# Screen size: about 230,000 compounds; about 3,600 (1.6%) were called active. This list was built around the results that the source calls inconclusive (neither active nor inactive); the mix of calls is not that of the screen. Calls come from the whole dose curve; as a rule, active = well fitted inhibition curve with a large enough effect (not every such curve was filed as active); inconclusive = small, poorly fitted or top-dose-only effect, or another doubt; inactive = no such curve, though single readings can be large or run the other way. Potencies beside an inconclusive call are fits to weak or partial responses and may not hold up.
# Biological target: Lysine-specific demethylase 4E (Homo sapiens) (UniProt B2RXH2)
# Assay: qHTS Assay for Inhibitors of Human Jumonji Domain Containing 2E (JMJD2E)
# Settings: JMJD2E catalytic domain, FDH-coupled NADH fluorescence (FDH is formaldehyde dehydrogenase); series mostly up to 57.1 µM
# Note: nearly all actives have a fitted effect of over 50% in size.
# Potency is the fitted concentration of half-maximal effect; tags give direction and shape of the fitted curve.
# Sequence of UniProt B2RXH2 (B2RXH2 whole entry, looked up, the tested form may be a part): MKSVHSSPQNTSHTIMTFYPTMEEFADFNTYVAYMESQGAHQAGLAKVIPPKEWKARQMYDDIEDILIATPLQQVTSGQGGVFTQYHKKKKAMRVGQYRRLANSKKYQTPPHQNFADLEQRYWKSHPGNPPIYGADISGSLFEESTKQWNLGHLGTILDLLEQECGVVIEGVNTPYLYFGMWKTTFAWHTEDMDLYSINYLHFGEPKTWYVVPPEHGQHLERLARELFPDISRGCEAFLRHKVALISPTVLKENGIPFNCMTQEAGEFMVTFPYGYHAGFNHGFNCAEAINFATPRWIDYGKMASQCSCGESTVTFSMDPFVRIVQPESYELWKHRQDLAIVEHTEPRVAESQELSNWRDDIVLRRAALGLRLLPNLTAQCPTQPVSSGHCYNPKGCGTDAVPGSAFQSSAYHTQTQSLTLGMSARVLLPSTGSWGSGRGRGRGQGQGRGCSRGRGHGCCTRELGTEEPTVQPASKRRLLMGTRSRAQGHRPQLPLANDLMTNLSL
row,SMILES,Potency
1,Cn1ccnc1/C(=N\NC(=O)c1ccccc1)c1cccc([N+](=O)[O-])c1,inactive
2,Cc1c(/C=N/Nc2ccc(C(=O)O)cc2)c2ccccc2n1C,"inconclusive: 25.1 µM [inhibitor, partial curve]"
3,CC1(C)CC(=O)C(C=Nc2ccccc2C(=O)O)=C(O)C1,"inconclusive: 15.8 µM [inhibitor, partial curve]"
4,CCCCc1nc(NCc2ccccc2)c(C#N)c2c1CCCC2,"inconclusive: 31.6 µM [inhibitor, partial curve]"
5,Cc1ccn2c(-c3n[nH]c(=S)n3C)c(C)nc2c1,"inconclusive: 8.91 µM [inhibitor, single point]"
6,N#CCOc1ccc2oc(-c3ccco3)cc(=O)c2c1,"inconclusive: 7.94 µM [inhibitor, full curve]"
7,COc1cccc(OCC(O)CN2CCC(CN3C(=O)c4cccc5cccc(c45)C3=O)CC2)c1 (stereo not drawn),"inconclusive: 31.6 µM [inhibitor, partial curve]"
8,C=CCNC(=S)NNC(=O)C(CCCC)CC(C)O (stereo not drawn),inactive
9,COC(=O)c1ccc(-c2ccc(/C=N/N3C(=O)C4C5C=CC(C6CC56)C4C3=O)o2)cc1 (stereo not drawn),"inconclusive: 28.2 µM [inhibitor, single point]"
10,O=C1Nc2ccccc2/C1=N/N=C/c1cccc(O)c1,"inconclusive: 1.78 µM [inhibitor, full curve]"
11,Cc1cc(C(=O)COc2ccccc2C(N)=O)c(C)n1C,inactive
12,Cc1ccc(C)[n+](CC(=O)c2ccc(-c3ccccc3)cc2)c1,"inconclusive: 31.6 µM [inhibitor, partial curve]"
13,CC(Oc1ccc2oc(-c3ccccc3)c(C(=O)O)c2c1)C(=O)O (stereo not drawn),"inconclusive: 28.2 µM [inhibitor, partial curve]"
14,Cc1nn2c(NCc3ccccn3)cc(C(C)C)nc2c1-c1ccccc1,"inconclusive: 25.1 µM [inhibitor, partial curve]"
15,CCOC(=O)Cc1cc(=O)n2[nH]c(C)c(-c3ccccc3)c2n1,"inconclusive: 39.8 µM [inhibitor, single point]"
16,COc1ccc(C(=O)N/C(=C\c2ccccc2)C(=O)NC(CCSC)C(=O)O)cc1 (stereo not drawn),"inconclusive: 25.1 µM [inhibitor, partial curve]"
17,Cc1cccc(N2C(=O)CC(NNc3nc4ccccc4s3)C2=O)c1 (stereo not drawn),inactive
18,Cc1ccc2cc(CN(c3ccccc3)S(=O)(=O)c3ccccc3)c(=O)[nH]c2c1,"inconclusive: 25.1 µM [inhibitor, single point]"
19,COc1ccc(/C=N/Nc2cc(C)nc(N3CCOCC3)n2)c(OC)c1,"inconclusive: 39.8 µM [inhibitor, single point]"
20,Cc1cc(C)n2nc(NCc3ccccc3)nc2n1,"inconclusive: 28.2 µM [inhibitor, partial curve]"
21,CC(=O)Oc1ccc2c(C)cc(=O)[nH]c2c1,"inconclusive: 39.8 µM [inhibitor, single point]"
22,c1ccc(-c2csc(-c3nc4ccccc4[nH]3)n2)cc1,"inconclusive: 3.98 µM [inhibitor, full curve]"

row,SMILES,Potency
1,CCCCS(=O)(=O)/C=C\C1C2C=CC(C2)C1S(=O)(=O)CCCC (stereo not drawn),inactive
2,Cc1ccc(NC(=S)NCC2CCCO2)cc1 (stereo not drawn),inactive
3,COc1cc(/C=N/n2nnnc2Nc2ccccc2)cc(OC)c1OC,"inconclusive: 31.6 µM [inhibitor, single point]"
4,CN(C(=O)CSC1=Nc2ccccc2C2=NC(c3ccccc3)C(=O)N12)C1CCCCC1 (stereo not drawn),"inconclusive: 31.6 µM [inhibitor, partial curve]"
5,COc1ccc2cc(C(N)=O)/c(=N/NC(=O)c3ccco3)oc2c1,"inconclusive: 28.2 µM [inhibitor, single point]"
6,CCN(CC)c1ccc(/C=N/NC(=O)c2ccco2)cc1,"inconclusive: 11.2 µM [inhibitor, partial curve]"
7,Cc1c(Cc2ccccc2)c(=O)oc2c(C)c(OCC(=O)Nc3ccc(C#N)cc3)ccc12,"inconclusive: 3.98 µM [inhibitor, full curve]"
8,COc1ccc(-c2c3c(nc4sc5c(=O)[nH]c(C)nc5c24)CCC3)cc1,"inconclusive: 7.08 µM [inhibitor, full curve]"
9,CCCC(=O)Nc1ccc2c(c1)nc(CCN1CCCCC1)n2C,"inconclusive: 12.6 µM [inhibitor, partial curve]"
10,NC(=NCc1ccc(Cl)c(Cl)c1)NC(=O)c1nc(Cl)c(N)nc1N,"inconclusive: 31.6 µM [inhibitor, partial curve]"
11,Cc1ccc(N2C(=O)C3C(C2=O)N2C(c4cccs4)C4C(=O)N(c5ccc(C)cc5)C(=O)C4N2C3c2cccs2)cc1 (stereo not drawn),inactive
12,CN(C)c1nc(N)c(C(=O)Nc2cccnc2)nc1Cl,"inconclusive: 31.6 µM [inhibitor, single point]"
13,Cc1ccc(C(=O)c2ccccc2C(=O)OCC(=O)NC(C)(C)C)cc1,inactive
14,COc1ccccc1CN1C[C@@H]2C[C@@H](C3=Cc4cc(Cl)ccc4OC3)N3CCC[C@@]23C1=O,"inconclusive: 35.5 µM [inhibitor, single point]"
15,CN(Cc1ccccc1)Cc1ccccc1F,"inconclusive: 39.8 µM [inhibitor, single point]"
16,O=c1cc(CO)oc(C(Nc2ccccn2)c2ccc(F)cc2)c1O (stereo not drawn),"inconclusive: 31.6 µM [inhibitor, single point]"
17,O=C(NC1CCCc2ccccc21)c1cccc(S(=O)(=O)N2CCN(c3ccccc3)CC2)c1 (stereo not drawn),inactive
18,CCCCN(C)S(=O)(=O)c1ccc(C(=O)N=c2sc3cc(NC(C)=O)ccc3n2C)cc1,"inconclusive: 0.282 µM [inhibitor, full curve]"
19,O=C(CNC(=O)c1ccco1)OCC(=O)c1ccc(Cl)cc1Cl,inactive
20,O=C(Nc1cccc(Cl)c1)c1ccc(OC(=S)N2CCOCC2)cc1,"inconclusive: 31.6 µM [inhibitor, single point]"
21,Cc1ccc(C(=O)N/C(=C\c2ccc(-c3ccc(Br)cc3)o2)C(=O)NCCCN(C)C)cc1,"inconclusive: 39.8 µM [inhibitor, single point]"
